The list shows a part of the results.

One assay deals with HSkMC. Description: cytotoxicity call (relative viability < 0.9). The conditions noted are these: 10 µM.
Another assay deals with HepG2. Briefly: cytotoxicity call (relative viability < 0.9). The conditions noted are these: 10 µM.
For a further assay, the system named is S. aureus RN4220. Briefly: growth inhibition call (relative growth <= 0.2). The conditions noted are these: 50 µM.

Regarding `O=c1cc(O)nc[nH]1`, the cytotoxicity call in the assay on HSkMC and with HepG2 was “inactive” throughout. For the same compound, the growth inhibition call with S. aureus RN4220 is “inactive”.

With `C[C@H]1CN([C@@H](C)CO)C(=O)CCCn2cc(nn2)CO[C@@H]1CN(C)C(=O)Nc1ccc2c(c1)OCO2`, the cytotoxicity call in the assay with HSkMC and with HepG2 was “inactive” in each case. Moreover, the growth inhibition call in the assay with S. aureus RN4220 is “inactive”.

`COc1cccc(C#Cc2cnc3c(c2)C(=O)N([C@H](C)CO)C[C@H](C)[C@H](CN(C)C(=O)C2CCC2)O3)c1`: the cytotoxicity call in the assay with HSkMC and in the assay with HepG2 was “inactive” throughout. Besides, the growth inhibition call in the assay with S. aureus RN4220 is “inactive”.

Regarding `C[C@H](CO)N1C[C@H](C)[C@@H](CN(C)Cc2ccc(-c3ccccc3)cc2)Oc2ccc(NC(=O)Nc3ccccc3)cc2CC1=O`, the cytotoxicity call in the assay on HSkMC is “inactive”. Moreover, the cytotoxicity call in the assay with HepG2 is “active”. Moreover, in the assay on S. aureus RN4220, the growth inhibition call was “inactive”.

Turning to `C=C[C@H](CO[Si](CC)(CC)CC)N(Cc1ccc(OC(C)=O)c(OC)c1)S(=O)(=O)c1ccc(Br)cc1`, the cytotoxicity call in the assay on HSkMC (human skeletal muscle cells) and with HepG2 was “inactive” in each case. For the same compound, in the assay on S. aureus RN4220, the growth inhibition call is “inactive”.

In the case of `C[C@@H]1CN([C@@H](C)CO)C(=O)c2cc(C#CCN(C)C)cnc2O[C@@H]1CN(C)C(=O)Nc1cc(F)ccc1F`, the cytotoxicity call with HSkMC and in the assay on HepG2 was “inactive” throughout. In addition, the growth inhibition call in the assay on S. aureus RN4220 is “inactive”.

`COc1cccc(S(=O)(=O)N(C)C[C@H]2Oc3cc(C#CCC(C)C)ccc3S(=O)(=O)N([C@@H](C)CO)C[C@H]2C)c1`: the cytotoxicity call in the assay with HSkMC and in the assay on HepG2 was “inactive” in each case. Moreover, in the assay with S. aureus RN4220, the growth inhibition call is “inactive”.

On to `COC(=O)C(=C1OC(=O)C(c2ccccc2)=C1O)c1ccccc1`, for which the cytotoxicity call in the assay with HSkMC and in the assay on HepG2 was “inactive” throughout. For the same compound, the growth inhibition call with S. aureus RN4220 was “inactive”.

Turning to `C[C@@H]1CCCCO[C@@H](CN(C)C(=O)Nc2ccc3c(c2)OCO3)[C@H](C)CN([C@H](C)CO)C(=O)c2cc(NC(=O)Nc3ccccc3)ccc2O1`, the cytotoxicity call in the assay with HSkMC was “inactive”. In the assay on HepG2, the cytotoxicity call is “active”. Also, the growth inhibition call with S. aureus RN4220 was “inactive”.

As to `C[C@@H]1CCCCO[C@H](CN(C)CC2CCCCC2)[C@H](C)CN([C@H](C)CO)C(=O)c2cc(NS(=O)(=O)c3ccc(F)cc3)ccc2O1`, the cytotoxicity call with HSkMC and in the assay on HepG2 was “inactive” in each case. In the assay on S. aureus RN4220, the growth inhibition call was “inactive”.

(Values after the antibiotic and cytotoxicity screens of Wong et al. (2023).)
